Data from a collection of fitness landscapes (doi:10.1016/j.celrep.2020.107928).
In all, about 81,000 sequences were measured (“one-hybrid fitness for binding NBS DNA”: median about -0.1, highest 2% from about 0.36 on). The list shows a part of the results.

B1: Caulobacter ParB omega fusion; a variant is named by its letters at X, in order, B8GW30 (parent)
chain: MESVVVGEPGMSEGRRGLGRGLSALLGEVDAAPAQAPGEQLGGSREAPIEILQRNPDQPRRTFREEDLEDLSNSIREKGVLQPILVRPSPDTAGEYQIVAGERAWRAAQRAGLKTVPIMVRELDDLAVLEIGIIENVQRADLNVLEEALSYKVLMEKFERTQENIAQTIGKSXSHVANXMRLLXLPDEVQSYLVSGELTAXHARAIAAAADPVALAKQIIEGGLSVRETEALARKAPNLSAGKSKGGRPPRVKDTDTQALESDLSSVLGLDVSIDHRGSTGTLTITYATLEQLDDLCNRLTRGI

Variants of: B1
Assay: one-hybrid fitness for binding NBS DNA (the Noc-binding site; scaled: cognate 1, non-cognate 0); higher = stronger binding
Conditions: with NBS DNA site
Method in brief: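 On M9-minus-histidine containing 0.1 mM IPTG and 5 mM 3-AT, E. coli USO cells with a HIS3 reporter, site 19 bp from the promoter, grew 48 hours at 37°C to select Caulobacter ParB libraries randomised at four specificity codons. Plasmids from before and after were Illumina-sequenced, with three replicate libraries pooled and variants under 10 reads left out. Fitness is the log change in variant-to-wild-type read ratio, rescaled against cognate and non-cognate.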

Variant | one-hybrid fitness for binding NBS DNA
SSLT | ≤ 0.2
KHKR | 0.396
ERKI | ≤ 0.2
SVKS | ≤ 0.2
VITS | ≤ 0.2
KINA | ≤ 0.2
GTSK | ≤ 0.2
STVS | ≤ 0.2
HRTI | ≤ 0.2
SCQT | ≤ 0.2
CCMT | ≤ 0.2
VIRA | ≤ 0.2
KCTR | ≤ 0.2
PCDH | ≤ 0.2
MFWG | ≤ 0.2
RDPW | ≤ 0.2
EKNR | ≤ 0.2
GGFR | ≤ 0.2
DAAE | ≤ 0.2
DFPL | ≤ 0.2
CNAG | ≤ 0.2
QQRH | 0.645
EANC | ≤ 0.2
LSGD | ≤ 0.2

Variant | one-hybrid fitness for binding NBS DNA
QFLR | ≤ 0.2
TSTE | ≤ 0.2
QQKK | 0.506
LTWT | ≤ 0.2
HITA | ≤ 0.2
KVCT | ≤ 0.2
EVGR | ≤ 0.2
YYAL | ≤ 0.2
ALDD | ≤ 0.2
GQRI | ≤ 0.2
TDHQ | ≤ 0.2
WCLN | ≤ 0.2
HYNF | ≤ 0.2
QNME | ≤ 0.2
AHTN | ≤ 0.2
RQGH | ≤ 0.2
QAME | ≤ 0.2
ETMD | ≤ 0.2
MVKS | ≤ 0.2
KDLC | ≤ 0.2
MNIG | ≤ 0.2
TWGC | ≤ 0.2
HEKL | ≤ 0.2
FTDS | ≤ 0.2

Variant | one-hybrid fitness for binding NBS DNA
DHHL | ≤ 0.2
GNSM | ≤ 0.2
QHKD | ≤ 0.2
IQYS | ≤ 0.2
QYTY | ≤ 0.2
PRDP | ≤ 0.2
VKSC | ≤ 0.2
NHNT | ≤ 0.2
KATY | ≤ 0.2
LNMI | ≤ 0.2
MLCR | ≤ 0.2
RKVY | ≤ 0.2
DALW | ≤ 0.2
PMVM | ≤ 0.2
VGRG | ≤ 0.2
VHEC | ≤ 0.2
LIIG | ≤ 0.2
CNLR | ≤ 0.2
YDNR | ≤ 0.2
DCPS | ≤ 0.2
DAPE | ≤ 0.2
NWCS | ≤ 0.2
KGMT | ≤ 0.2
HRYY | ≤ 0.2

Variant | one-hybrid fitness for binding NBS DNA
STYT | ≤ 0.2
ESMC | ≤ 0.2
DWLS | ≤ 0.2
WLES | ≤ 0.2
NRDC | ≤ 0.2
MGRE | ≤ 0.2
DGHI | ≤ 0.2
RMDQ | ≤ 0.2
PYRT | ≤ 0.2
GLRR | ≤ 0.2
MISK | ≤ 0.2
PQET | ≤ 0.2
PGAA | ≤ 0.2
RNYM | ≤ 0.2
GTGC | ≤ 0.2
NDNG | ≤ 0.2
QRED | ≤ 0.2
KSHT | ≤ 0.2
VSGR | ≤ 0.2
TGPR | ≤ 0.2
FQSG | ≤ 0.2
HSDR | ≤ 0.2
LDNM | ≤ 0.2
LERE | ≤ 0.2

Variant | one-hybrid fitness for binding NBS DNA
PVRE | ≤ 0.2
EHLL | ≤ 0.2
YPAK | ≤ 0.2
DQLS | ≤ 0.2
TVKK | ≤ 0.2
WIPS | ≤ 0.2
WLIN | ≤ 0.2
TQYA | ≤ 0.2
GKPT | ≤ 0.2
PHTQ | ≤ 0.2
RMQE | ≤ 0.2
LKHD | ≤ 0.2
LKLT | ≤ 0.2
RLIC | ≤ 0.2
EYSI | ≤ 0.2
DRWS | ≤ 0.2
VKTM | ≤ 0.2
HTNR | ≤ 0.2
RLGY | ≤ 0.2
LVLD | ≤ 0.2
RANV | ≤ 0.2
VSKC | ≤ 0.2
LLHR | ≤ 0.2
TDPP | ≤ 0.2

Variant | one-hybrid fitness for binding NBS DNA
DSTP | ≤ 0.2
VKLG | ≤ 0.2
GVTE | ≤ 0.2
KVSF | ≤ 0.2
TADC | ≤ 0.2
CCHT | ≤ 0.2
TNQN | ≤ 0.2
TLRW | ≤ 0.2
RYTH | ≤ 0.2
MGMS | ≤ 0.2
QHRW | 0.239
QTKM | 0.563
NYRN | ≤ 0.2
VDEC | ≤ 0.2
MTEC | ≤ 0.2
NTCF | ≤ 0.2
PELE | ≤ 0.2
WFNI | ≤ 0.2
CCHC | ≤ 0.2
ISYS | ≤ 0.2
PSFQ | ≤ 0.2
WLRV | ≤ 0.2
AGGG | ≤ 0.2
LANW | ≤ 0.2

Variant | one-hybrid fitness for binding NBS DNA
PSMF | ≤ 0.2
TWQF | ≤ 0.2
CPGQ | ≤ 0.2
HSKV | ≤ 0.2
GCTV | ≤ 0.2
RMGA | ≤ 0.2
IGQF | ≤ 0.2
MGFS | ≤ 0.2
KGCS | ≤ 0.2
CVLA | ≤ 0.2
IRQI | ≤ 0.2
DGPS | ≤ 0.2
TYTW | ≤ 0.2
PFCL | ≤ 0.2
NWAC | ≤ 0.2
HEST | ≤ 0.2
LFTF | ≤ 0.2
MGSS | ≤ 0.2
QDEK | ≤ 0.2
EEGR | ≤ 0.2
RAAF | ≤ 0.2
LTRV | ≤ 0.2
MAFR | ≤ 0.2
KLNA | ≤ 0.2

Variant | one-hybrid fitness for binding NBS DNA
TRSK | ≤ 0.2
QVGA | ≤ 0.2
QRYL | ≤ 0.2
QLCS | 0.289
ENRH | ≤ 0.2
LWSM | ≤ 0.2
ESVW | ≤ 0.2
DWKT | ≤ 0.2
KANM | ≤ 0.2
HNPF | ≤ 0.2
SCYG | ≤ 0.2
KPHW | ≤ 0.2
GISS | ≤ 0.2
ACST | ≤ 0.2
SEEF | ≤ 0.2
HPTD | ≤ 0.2
STPW | ≤ 0.2
PTKE | ≤ 0.2
SVLP | ≤ 0.2
NFLV | ≤ 0.2
TCEY | ≤ 0.2
PWKQ | ≤ 0.2
LMST | ≤ 0.2
QHHY | ≤ 0.2

Variant | one-hybrid fitness for binding NBS DNA
VSVK | ≤ 0.2
QLMG | ≤ 0.2
VPVR | ≤ 0.2
RVQM | ≤ 0.2
KRKP | ≤ 0.2
CPTV | ≤ 0.2
KCNT | 0.207
LGHP | ≤ 0.2
RPKI | ≤ 0.2
FGCR | ≤ 0.2
QSDD | ≤ 0.2
DFLR | ≤ 0.2
AQYA | ≤ 0.2
NADQ | ≤ 0.2
RSGI | ≤ 0.2
TFIR | ≤ 0.2
CTLC | ≤ 0.2
RKWP | ≤ 0.2
GALC | ≤ 0.2
NVKF | ≤ 0.2
CRHW | ≤ 0.2
LDYT | ≤ 0.2
IRVV | ≤ 0.2
TVTC | ≤ 0.2

Variant | one-hybrid fitness for binding NBS DNA
TGNQ | ≤ 0.2
RPHE | ≤ 0.2
RVHT | 0.487
CLSD | ≤ 0.2
PYHE | ≤ 0.2
PDKL | ≤ 0.2
AYYN | ≤ 0.2
QTTK | 0.206
GHCW | ≤ 0.2
TIES | ≤ 0.2
SDVN | ≤ 0.2
PTPG | ≤ 0.2
NSRQ | ≤ 0.2
LCYL | ≤ 0.2
LVDL | ≤ 0.2
QTQR | 0.757
QMIS | 0.289
PDDH | ≤ 0.2
AYRG | ≤ 0.2
AHQS | ≤ 0.2
GRAC | ≤ 0.2
NALD | ≤ 0.2
QCKE | 0.297
MTLW | ≤ 0.2

Variant | one-hybrid fitness for binding NBS DNA
PSHS | ≤ 0.2
YFPS | ≤ 0.2
SERS | ≤ 0.2
CDYG | ≤ 0.2
RLLR | 0.32
RATW | ≤ 0.2
RMPS | ≤ 0.2
LPDE | ≤ 0.2
NDIS | ≤ 0.2
YKRR | 0.316
MRAC | ≤ 0.2
PILA | ≤ 0.2
SGHR | ≤ 0.2
MQRT | ≤ 0.2
DTAA | ≤ 0.2
FAIS | ≤ 0.2
MCPC | ≤ 0.2
FTTV | ≤ 0.2
RSPH | ≤ 0.2
HSIN | ≤ 0.2
DQVT | ≤ 0.2
NCML | ≤ 0.2
QTPN | ≤ 0.2
HGRY | ≤ 0.2

Variant | one-hybrid fitness for binding NBS DNA
AWQC | ≤ 0.2
FNNT | ≤ 0.2
SDEF | ≤ 0.2
KRFA | 0.277
GAHH | ≤ 0.2
GHRW | ≤ 0.2
PDCM | ≤ 0.2
DRKY | ≤ 0.2
NVQF | ≤ 0.2
HYPI | ≤ 0.2
WTKK | ≤ 0.2
HDPA | ≤ 0.2
TDHH | ≤ 0.2
PEQR | ≤ 0.2
QWTT | ≤ 0.2
SHTL | ≤ 0.2
QMCD | ≤ 0.2
MYHP | ≤ 0.2
GNRM | ≤ 0.2
TRCV | ≤ 0.2
STEA | ≤ 0.2
CTQL | ≤ 0.2
AVSG | ≤ 0.2
VNWG | ≤ 0.2

Variant | one-hybrid fitness for binding NBS DNA
VWKV | ≤ 0.2
QKIG | ≤ 0.2
QHSN | ≤ 0.2
QSAA | 0.273
AHCV | ≤ 0.2
GGRQ | ≤ 0.2
QSNM | ≤ 0.2
HRPN | ≤ 0.2
NQQS | ≤ 0.2
MMRS | ≤ 0.2
TIHD | ≤ 0.2
ELWR | ≤ 0.2
EAPY | ≤ 0.2
TVQL | ≤ 0.2
ESTS | ≤ 0.2
YPLF | ≤ 0.2
DMMG | ≤ 0.2
YGRC | ≤ 0.2
